Structures are written as SMILES. The whole screen tested about 45,000 compounds, of which about 200 (0.44%) were called active. Not shown: some 7% with an inconclusive outcome. Calls come from the whole dose curve; as a rule, active = well fitted activation curve with a large enough effect; inconclusive = small, poorly fitted or top-dose-only effect; inactive = no such curve, though single readings can be large or run the other way. The list shows a part of the results.

A short description of the assay: qHTS of TDP-43 Inhibitors: NCGC Sytravon Library Screen. Note: 0% is about no effect; nearly all actives have a fitted effect of over 55% in size. The settings on record: yeast TDP-43 toxicity rescue, BacTiter-Glo growth, 24 h; series mostly up to 46.1 µM; growth rescue (activation): at the top concentration. In a few lines:
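TDP-43-expressing yeast, pregrown in raffinose, seeded at OD600 0.02 in galactose medium with compound for 24 hr at 30 deg C. Growth read by BacTiter-Glo luminescence, so rescue of toxicity appears as activation.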
Regarding `COc1cc(N)c(Cl)cc1C(=O)OCC(=O)NC(=O)NCc1ccco1`, the “growth rescue (activation)” value is inactive: -23.6%. Then `COc1ccc(CNC(=O)CSc2nnc(C)c(=O)[nH]2)cc1`, with inactive: 13.5%; and `OCCN1CCN(CC(O)COC(c2ccc(F)cc2)c2ccc(F)cc2)CC1` (stereo unspecified), with inactive: 5.81%; and `Cc1ccc(C)c(S(=O)(=O)ON2C(=O)c3ccccc3C2=O)c1`, with inactive: -10.9%. Then `COc1ccc(C(CC(=O)NC(C)(C)C)n2cccc2)cc1` (stereo unspecified), with inactive: 21.7%; and `CC(C)(C)C(=O)c1cn(CC(=O)O)c2ccccc12`, with inactive: -37.2%; and `COc1ccc(C(=O)NC2CCN(CC(=O)N3CCCCC3)CC2)cc1`, with inactive: 9.87%. Then `O=S(=O)(NCc1ccccc1)NCc1cccc(C(F)(F)F)c1`, with inactive: 15.2%; and `CNC(=S)N(Cc1cccs1)Cc1cc2cc(OC)c(OC)cc2[nH]c1=O`, with inactive: -22.6%; and `O=C1N=C(N2CCCCC2)S/C1=C/C1=Cc2ccccc2OC1`, with inactive: 27.3%.

As to `Cc1ccc(NC(=O)c2ccc(=O)[nH]c2)cc1S(=O)(=O)N1CCCCCC1`, the “growth rescue (activation)” value was inactive: 12.1%.

On to `COc1cc(NC(=O)CSc2nc3ccccc3cc2C)c(C(=O)O)cc1OC`, for which the “growth rescue (activation)” value was inactive: 24.3%. `Cc1c(C(=O)N2CCC2(C)C(=O)O)oc2ccccc12` (stereo unspecified): the “growth rescue (activation)” value is inactive: 4.07%. Then `C/C(=N\NC(=O)CSCc1ccc(Cl)cc1)c1ccc(NC(=O)c2ccccc2)cc1`, with inactive: -1.21%; and `NS(=O)(=O)c1cc(C(=O)N2CCNC(=O)C2)ccc1Cl`, with inactive: 14.9%.

Take `OC(c1cccnc1)c1nc(/C=C/c2ccc(C(F)(F)F)cc2)cs1` (stereo unspecified): the “growth rescue (activation)” value is inactive: -0.684%. Take `CCc1ccc(CNC(=O)c2ccc(OC3CCN(C(=O)COC)CC3)cc2)nc1`: the “growth rescue (activation)” value is inactive: 4.85%. Then `C=CCN1C(=O)C(O)(CC(=O)c2ccccn2)c2ccccc21` (stereo unspecified), with inactive: 2.18%. Then `Cn1c(=O)c(=O)n(C)c2cc(S(=O)(=O)CCC(=O)Nc3cccc(C(F)(F)F)c3)ccc21`, with inactive: -7.07%; and `CC(=O)Nc1ccc(NS(=O)(=O)c2ccccc2)c2ccccc12`, with inactive: -11.2%; and `COc1ccccc1NC(=O)Cc1nnc(SCC(=O)Nc2nccs2)n1C`, with inactive: -5.47%. Regarding `Cc1ccc(C(=O)n2nnc3ccccc32)cc1[N+](=O)[O-]`, the “growth rescue (activation)” value is inactive: 10.2%. In the case of `CCCCN(CC)C(=O)c1ccccc1Oc1ccccc1`, the “growth rescue (activation)” value is inactive: 6.82%. With `CN(CC(=O)NC1CCCC1)S(=O)(=O)c1cccc(Cl)c1`, the “growth rescue (activation)” value is inactive: 27.1%.

On to `CCCc1cc(=O)[nH]c(Nc2ccc(Cl)cc2)n1`, for which the “growth rescue (activation)” value was inactive: -2.2%. Then `Cc1cccc(OCC(=O)Nc2ccc3c(c2)nc2n3CCOC2)c1`, with inactive: -4.04%; and `CC(C)[C@H](NS(=O)(=O)c1ccccc1)C(=O)OCC(=O)Nc1ccc2c(c1)OCO2`, with inactive: 4.48%; and `Cc1ccccc1CN1C(=O)CS/C1=N/N=C/c1ccco1`, with inactive: -7.38%. In the case of `Cc1cc(Cl)ccc1C(=O)C1CCCN(C(=O)CCN2CCCO2)C1` (stereo unspecified), the “growth rescue (activation)” value was inactive: -1.94%. Then `Cc1nnc(NC(=O)CSc2nnc3c(n2)[nH]c2ccccc23)s1`, with inactive: 4.27%; and `Cc1nn(CCCC(=O)NCc2cccc(Cl)c2)c(=O)c2c1sc1ccccc12`, with inactive: 19.1%; and `CCc1ccc2[nH]c(=O)c(CN(CCCN3CCOCC3)C(=O)Nc3cccc(Cl)c3)cc2c1`, with inactive: 2.13%. For `COc1ccc(CCNC(=O)CN2CCN(Cc3ccccc3F)C2=O)cc1OC`, the “growth rescue (activation)” value is inactive: -6.59%. For `Cn1c(=O)c2c(nc(NCc3ccco3)n2C/C=C/c2ccccc2)n(C)c1=O`, the “growth rescue (activation)” value was inactive: 11.8%. For the compound `COC(=O)c1sccc1NC(=O)/C=C/c1ccc(Cl)cc1Cl`, the “growth rescue (activation)” value is inactive: -12.2%.

On to `COc1cc(S(=O)(=O)NCc2ccncc2)c(OC)cc1C`, for which the “growth rescue (activation)” value was inactive: -0.429%. Then `CCCc1cc(=O)n2[nH]c(NCc3ccc(OC)c(OC)c3)nc2n1`, with inactive: 3.74%; and `Cc1nn(CC(=O)NCc2ccc(C(=O)O)cc2)c(C)c1[N+](=O)[O-]`, with inactive: -21.7%; and `Fc1ccccc1-n1ncc2c1ncn1nc(-c3ccccc3Cl)nc21`, with inactive: 19.2%.

Regarding `COc1ccc(Cl)cc1S(=O)(=O)NC(C)C(=O)NCCN1CCOCC1` (stereo unspecified), the “growth rescue (activation)” value was inactive: 5.37%. Then `CCOC(=O)Cn1c(=O)cc(C)c2ccccc21`, with inactive: 8.94%. Then `Cc1cc(C)cc(NC(=O)N2C3CCCC2CC(NC(=O)C2CC2)C3)c1` (stereo unspecified), with inactive: 4.91%; and `CCOC(=O)c1c(C(=O)OCC)c(C)n(CCc2ccc(OC)c(OC)c2)c1C`, with inactive: 9.28%.

Turning to `CSCCC(NC(=O)c1ccc(Cl)cc1Cl)C(=O)OCC(N)=O` (stereo unspecified), the “growth rescue (activation)” value is inactive: 7.25%. Then `O=C(Nc1cc(S(=O)(=O)N2CCOCC2)ccc1N1CCCC1)C1CC1`, with inactive: 8.87%. Then `O=S(=O)(c1ccc2ncn(O)c2c1)N1CCOCC1`, with inactive: -17.8%; and `Cc1ccccc1NC(=O)/C(C#N)=C\c1cn(CC(=O)O)c2ccccc12`, with inactive: 3.74%. Then `COc1ccc(NC(=O)COC(=O)Cc2ccsc2)c(OC)c1`, with inactive: -5.13%; and `CCOC(=O)/C=C1\SCC(=O)N1CC(=O)Nc1cc(S(=O)(=O)N(C)C)ccc1C`, with inactive: 2.2%; and `COCC(C)NCC(=O)NC(C)CCc1ccccc1` (stereo unspecified), with inactive: -3.81%. Turning to `CCCCN(C(=O)c1ccc(OC)c([N+](=O)[O-])c1)c1c(N)n(CCC)c(=O)[nH]c1=O`, the “growth rescue (activation)” value was inactive: -13%.

As for `COc1c(F)c(F)c(C(=O)O)c(Nc2ccc(C)cc2C)c1F`, the “growth rescue (activation)” value is inactive: 5.76%. Consider `CCN1CCN(CCOc2ccc(Cl)cc2)CC1`, for which the “growth rescue (activation)” value was inactive: -3.35%.

In the case of `Clc1ccc2nc(NCc3ccccc3)c3nncn3c2c1`, the “growth rescue (activation)” value is inactive: -2.18%. Then `NC(Cc1ccc(C(F)(F)F)cc1)c1csc(Nc2ncccn2)n1` (stereo unspecified), with inactive: 8.88%; and `COc1ccc(N2CC(C(=O)Nc3nc4ccc(S(C)(=O)=O)cc4s3)CC2=O)cc1` (stereo unspecified), with inactive: -10.4%. Take `COc1ccc(N2C(S)=C(C#N)C(=O)NC2c2ccc(OC)c(OC)c2)cc1` (stereo unspecified): the “growth rescue (activation)” value is inactive: 0.327%. Regarding `OC(CNCCc1ccc(Cl)cc1Cl)COc1ccccc1` (stereo unspecified), the “growth rescue (activation)” value is inactive: 5.27%. For the compound `Cc1nc(N2CCN(c3ccccn3)CC2)c2c(C)c(C(=O)Nc3ccccc3F)sc2n1`, the “growth rescue (activation)” value was inactive: -3.5%.

`CCc1nc2c(OCc3ccc(Cl)cc3)cccn2c1N(C)C(=O)c1cccs1`: the “growth rescue (activation)” value is inactive: 24.7%.

In the case of `CSc1ncccc1C(=O)NC1CCCCCCC1`, the “growth rescue (activation)” value is inactive: -16.9%.

As to `CN(C)c1cc(NC(=O)CN2CCCC2)c2ccccc2n1`, the “growth rescue (activation)” value was inactive: 4.36%.

For the compound `CCOc1ccc(-n2c(=O)c3sccc3n(CC(=O)NCC3CCCO3)c2=O)cc1` (stereo unspecified), the “growth rescue (activation)” value was inactive: -2.72%. Then `COc1ccc(C(=O)Nc2cc(C)nn2-c2cccc(F)c2)cc1`, with inactive: 18.2%; and `COc1cc(NC(=O)c2cc(C)nc3ccccc23)cc(OC)c1`, with inactive: 6.96%; and `COc1ccc(CCn2c(C3CCCCC3)nc3c(c(=O)c4ccccc4n3C)c2=O)cc1OC`, with inactive: -50.1%. Take `O=C(CCN1CCN(c2ccccc2)CC1)N/N=C/c1ccccc1OC(F)F`: the “growth rescue (activation)” value was inactive: -6.52%. `Cc1ccc(NC(=O)Cn2nnc(-c3nc(-c4ccncc4)no3)c2N)c(C)c1`: the “growth rescue (activation)” value was inactive: -2.37%. On to `CCOc1ccccc1N1CCN(S(=O)(=O)CC)CC1`, for which the “growth rescue (activation)” value is inactive: -14%. Then `COc1cc(C2CC(=O)c3c(ccc4ccccc34)N2)ccc1O` (stereo unspecified), with inactive: -5.67%; and `O=S(=O)(c1cccc2cccnc12)N1CCN(c2ccc(F)cc2)CC1`, with inactive: 9.54%; and `CCn1c(SCC(=O)N/N=C(/C)c2ccncc2)nc2ccccc21`, with inactive: 3.39%.

For the compound `CCCCN(C(=S)NC(=O)c1cc(OC)c(OC)c(OC)c1)c1c(N)n(Cc2ccccc2)c(=O)[nH]c1=O`, the “growth rescue (activation)” value is inactive: -0.672%.

In the case of `CCOC(=O)c1c(NC(C)=O)c2c3c(sc2n1Cc1ccc(Cl)cc1)CCCC3`, the “growth rescue (activation)” value is inactive: -9.21%. Take `Cc1c(C(=O)OCC(=O)Nc2c(C)n(C)n(-c3ccccc3)c2=O)cccc1[N+](=O)[O-]`: the “growth rescue (activation)” value was inactive: 6.23%. Then `O=C(Nc1cccc(C(F)(F)F)c1)c1ccc(-c2ccc(F)c(F)c2)c2ccoc12`, with inactive: -2.45%; and `O=C(c1ccco1)N(Cc1cccc([N+](=O)[O-])c1)c1ccc(Br)cc1`, with inactive: 28.3%; and `O=C(OCC(=O)N1CCOCC1)c1cc(-c2ccccc2)nc2ccccc12`, with inactive: -2.57%. In the case of `CCCN(Cc1cc2cc(OC)ccc2[nH]c1=O)C(=O)c1ccco1`, the “growth rescue (activation)” value was inactive: -31.3%. Regarding `COc1cc2c(cc1OC)CN(C(=O)CN1C(=O)NC3(CCCCC3C)C1=O)CC2` (stereo unspecified), the “growth rescue (activation)” value is inactive: 9.85%. Then `CC1CCN(c2c(NCC3CCC(C(=O)NCCCc4ccccc4)CC3)c(=O)c2=O)CC1` (stereo unspecified), with inactive: -15.1%; and `O=C(CCCCCn1nnc2ccccc2c1=O)Nc1ccccc1F`, with inactive: 4.24%; and `NS(=O)(=O)c1ccc(CCNC(=O)CSc2ccc([N+](=O)[O-])cc2)cc1`, with inactive: -1.92%. Then `CC(=O)c1cc(-c2ccccc2)n(CCC(=O)NC2CCCCCCC2)c1C`, with inactive: -67.6%; and `Cc1ccc(C(C)C)c(OCCCNCc2cccnc2)c1`, with inactive: 1.61%; and `O=C(O)CC(=O)NC12CC3CC(CC(C3)C1)C2`, with inactive: 13.6%. Then `CCCc1nc2nc(C)c(NS(=O)(=O)c3ccc(F)cc3)c(=O)n2[nH]1`, with inactive: -13.3%; and `COc1ccc(NC(=O)C2(C)Cc3c(-c4cccc(C(N)=O)c4)ccnc3O2)cn1` (stereo unspecified), with inactive: 6.26%; and `COc1ccc(NC(=O)Nc2c[nH]c(=O)[nH]c2=O)cc1`, with inactive: 10.2%.

As for `CC(C)NC(=O)C1(C)CCN1C(=O)C1(c2ccccc2)CCCC1` (stereo unspecified), the “growth rescue (activation)” value is inactive: 20.5%. Then `COc1ccc(NC(=O)C(c2ccc(C)cc2)N(C)C(=O)c2ccc(=O)[nH]c2)cc1` (stereo unspecified), with inactive: 21.4%. On to `O=C(NC(c1ccccc1)c1cnccn1)C1CCN(Cc2ccc(Cl)c(Cl)c2)CC1` (stereo unspecified), for which the “growth rescue (activation)” value is inactive: -8.82%. Then `CC(=O)N1N=C(c2ccc(NS(C)(=O)=O)cc2)CC1c1ccc2nccnc2c1` (stereo unspecified), with inactive: -7.91%. `NS(=O)(=O)c1ccc(NC(=O)CSc2ncccn2)cc1`: the “growth rescue (activation)” value was inactive: -0.0304%. Then `O=C(NCCc1ccccc1)C(c1ccccc1F)N(C(=O)c1csnn1)C1CC1` (stereo unspecified), with inactive: -1.75%; and `COc1ccccc1C(C)NC(=O)c1ccc(S(=O)(=O)NCc2ccco2)cc1` (stereo unspecified), with inactive: -10.4%. Then `COc1ccccc1OCCCOc1ccc(C)cc1Br`, with inactive: 14.2%; and `CCn1c(SCC(=O)Nc2nncs2)nnc1-c1ccco1`, with inactive: 15.7%. With `CCOC(=O)c1sc(NC(=O)C2CC(=O)N(c3ccc(OCC)cc3)C2)nc1C` (stereo unspecified), the “growth rescue (activation)” value was inactive: 6.12%. Regarding `CCCC(=O)N1CCCC(c2cc(C(=O)NCc3ccccc3)no2)C1` (stereo unspecified), the “growth rescue (activation)” value was inactive: 14.9%.

In the case of `CCOCCCNC(=O)Cn1cnc2c(cnn2-c2ccc(OC)cc2)c1=O`, the “growth rescue (activation)” value is inactive: -2.58%. Then `COc1ccc(CC(=O)Nc2ccc(OC(C)=O)cc2C(=O)O)cc1`, with inactive: -0.865%. Then `Cc1cc(=O)oc2cc(OCC(=O)OCC(=O)Nc3ccc(C(C)C)cc3)ccc12`, with inactive: 0.602%. Then `CC1CCC(NC(=O)c2ccc3c(c2)N(Cc2ccccc2)C(=O)c2ccccc2S3(=O)=O)CC1` (stereo unspecified), with inactive: 3.12%; and `Cc1ccc(-c2nc(CN(CC3CCC3)CC3CCCO3)c(C)o2)s1` (stereo unspecified), with inactive: -1.16%. For the compound `CCc1nc2c(OCc3c(C)noc3C)cccn2c1N(C=O)Cc1ccc(OC)cc1`, the “growth rescue (activation)” value was inactive: 1.05%.
